# Source: PubChem BioAssay AID1745853 (National Center for Advancing Translational Sciences (NCATS), 2022)
# The list shows a part of the results. The main result of the screen is listed elsewhere. These columns were measured beside it and carry no call.
# How the values were obtained:
# Experiment in all cases: Primary Screen for Target Class Profiling of Small Molecule Inhibitors of Methyltransferases
# [1] = biological target: Glycine N-methyltransferase (Homo sapiens) (UniProt Q14749); settings: purified enzyme, MTase-Glo SAH luminescence; measured here: GNMT inhibition; at 40 µM; stronger effect = lower value
# Method in brief: (§1)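 Each enzyme was reacted with SAM and its substrate, with compounds tested once at 40 uM; SAH formed was read by MTase-Glo luminescence.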
# [2] = biological target: Guanidinoacetate N-methyltransferase (Homo sapiens) (UniProt Q14353); settings: purified enzyme, MTase-Glo SAH luminescence; measured here: GAMT inhibition; at 40 µM; stronger effect = lower value
# Method in brief: as §1
# [3] = biological target: Histamine N-methyltransferase (Homo sapiens) (UniProt P50135); settings: purified enzyme, MTase-Glo SAH luminescence; measured here: HNMT inhibition; at 40 µM; stronger effect = lower value
# Method in brief: as §1
# [4] = biological target: Nicotinamide N-methyltransferase (Homo sapiens) (UniProt P40261); settings: purified enzyme, MTase-Glo SAH luminescence; measured here: NNMT inhibition; at 40 µM; stronger effect = lower value
# Method in brief: as §1
# [5] = biological target: Phenylethanolamine N-methyltransferase (Homo sapiens) (UniProt P11086); settings: purified enzyme, MTase-Glo SAH luminescence; measured here: PNMT inhibition; at 40 µM; stronger effect = lower value
# Method in brief: as §1
# % is scaled to controls: 0 for no effect and ±100 for the full control effect.
SMILES,"activity change, negative = inhibition [1]","activity change, negative = inhibition [2]","activity change, negative = inhibition [3]","activity change, negative = inhibition [4]","activity change, negative = inhibition [5]"
Cc1ccc(NC(=O)Cn2nc3n(Cc4ccccc4)c(=O)c4ccccc4n3c2=O)c(C)c1,4.43%,1.58%,6.46%,5.12%,3.17%
CC(NC(=O)CNC(=O)c1cccc(-c2ccc(C(F)(F)F)cc2)c1)c1ccc(F)cc1 (stereo unspecified),-6.1%,-5.22%,-3.43%,-15.6%,3.87%
CC(C)NC(=O)N1CCCC1c1noc(CCC(=O)NCC2CC2)n1 (stereo unspecified),-0.009%,1.3%,1.8%,0.269%,0.566%
N#Cc1ccc(CN2CC[C@H](c3nnc(Cc4ccccc4)o3)C2)cc1,-4.08%,2.33%,0.079%,-1.29%,-19.4%
Cc1cc(-c2nc3ccncc3[nH]2)c(C)[nH]1,-23.1%,-9.12%,-90.2%,-42.4%,-14.6%
Cc1cccc(NS(=O)(=O)c2cc3c(cc2Cl)n(C)c(=O)n3C)c1,13.4%,0.925%,8.68%,9.07%,7.03%
CCN(CCCNC(=O)CCc1nnc2n(CCc3ccccc3)c(=O)c3ccccc3n12)c1cccc(C)c1,-4.12%,-0.596%,-10.2%,-2.15%,-10.2%
COc1ccccc1CN[C@@H]1CCCN[C@@H]1c1ccccc1,1.45%,14.5%,-21.1%,-1.61%,4.31%
COc1nccnc1NC1CCN(C(=O)Cc2c(C)noc2C)CC1,-1.91%,-4.61%,0.287%,-8.78%,-4.17%
CCCNC(=O)c1cc2n(n1)CC(C)(C(=O)NCc1ccc(F)cc1)N(C)C2=O (stereo unspecified),2.31%,0%,2.67%,3.98%,2.99%
Cc1ccn(-c2ccc(-c3ncco3)cc2)c(=O)c1-c1ccc2nc(N)ncc2c1,-2.95%,3.78%,6.77%,-15.4%,-1.63%
CCN1CCN(Cc2ccc(-c3cc4c(N[C@H](C)c5ccccc5)ncnc4[nH]3)cc2)CC1,,-20.6%,,-54.7%,-65.3%
CC(=O)O[C@@H]1[C@H](O[C@@H]2OC[C@](O)(CO)[C@H]2O)[C@@H](O[C@@H]2O[C@@H](C)[C@H](O)[C@@H](O)[C@H]2O)[C@H](OC(=O)[C@]23CCC(C)(C)C[C@H]2C2=CCC4[C@@]5(C)C[C@H](O)[C@H](O[C@@H]6O[C@H](C(=O)O)[C@@H](O)[C@H](O)[C@H]6O)[C@@](C)(C(=O)O)C5CC[C@@]4(C)[C@]2(C)CC3)O[C@@H]1C (stereo partly specified),0%,1.27%,7.2%,-7.52%,1.95%
CC(C)C1=CC2=CCC3[C@](C)(CCC[C@@]3(C)C(=O)O)C2CC1=O (stereo partly specified),0.983%,2.8%,12.9%,-9.02%,2.88%
CCN1CCC[C@H]1CNC(=O)c1c(O)c(Cl)cc(Cl)c1OC,-0.932%,7.9%,6.15%,-2.51%,7.39%
COc1ccccc1CCN1C(=O)c2cc(-c3ccccc3)nn2CC1(C)C(=O)NCc1ccccc1 (stereo unspecified),-0.066%,3.02%,-1.34%,-6.77%,-6.62%
COc1ccccc1CN1C(=O)c2c(NC(C)=O)c3ccccc3n2CC1(C)C(=O)NCCC(C)C (stereo unspecified),0.624%,4.22%,1.69%,1.4%,9.81%
CN1C(=O)c2cc(NC(=O)c3cc(-c4ccncc4)nc4ccccc34)ccc2N2CCN=C12,-9.75%,-2.15%,-1.97%,-3.91%,-2.76%
O=C(NC1CCCC1)c1ccc2c(=O)n(Cc3ccccc3)c3nn(Cc4ccc(F)cc4)c(=O)n3c2c1,4.7%,0%,8.5%,0.149%,0.675%
CCn1c(=O)n(CC)c2cc(S(=O)(=O)Nc3ccc(OC)c(Cl)c3)ccc21,7.94%,1.81%,11.3%,-19.7%,7.94%
COc1ccc(C(=O)N2CCCC2)c(OC2CCN(C(=O)C3C=CCN3)CC2)c1 (stereo unspecified),-3.06%,-5.29%,-1.35%,-13.1%,7.24%
NC(=O)[C@H]1CCS[C@@H]2C[C@]3(CCCN3C(=O)Cc3ccc(NC(=O)COc4ccc(Cl)cc4Cl)cc3)C(=O)N12,-8.85%,-0.983%,7.25%,-27.1%,1.02%
CCc1ccc(CNC(=O)c2ncn3c2C(=O)N(C2CC2)C(C)(C(=O)NCc2ccccc2Cl)C3)cc1 (stereo unspecified),-3.81%,0.394%,1.56%,-3.85%,0.814%
CSc1ccc(CNC(=O)c2cc3n(n2)CC(C)(C(=O)NC2CCCCC2)N(C)C3=O)cc1 (stereo unspecified),-7.66%,-1.5%,-1.99%,-8.26%,-4.65%
C(#Cc1nc2ncccc2nc1OCCN1CCCC1)c1ccccc1,-2.71%,-4.02%,-7.21%,-12.1%,0.187%
c1ccc(C2=NOC3(CCCN(CC4CCCC4)C3)C2)cc1 (stereo unspecified),-7.3%,-13.9%,-14.6%,-19.6%,-16.9%
COCCNC(=O)CN1C(=O)NC(c2cccs2)C2=C1COC2=O (stereo unspecified),-4.87%,-4.91%,-2.25%,-8.22%,-5.58%
C/C=C(\C)C(=O)OCC1OC(OCC2OC(OC3(CO)OC(CO)C(O)C3O)C(O)C(O)C2O)C(O)C(O)C1O (stereo unspecified),1.61%,1.32%,11.4%,-11.1%,-8.16%

SMILES,"activity change, negative = inhibition [1]","activity change, negative = inhibition [2]","activity change, negative = inhibition [3]","activity change, negative = inhibition [4]","activity change, negative = inhibition [5]"
CC1CCCN(C(=O)CN2CCCc3nc(-c4ccccc4)ncc3C2=O)C1 (stereo unspecified),-10.5%,-1.02%,-0.154%,-2.78%,-6.03%
Cc1ccc(CN2C(=O)c3ccc(-c4ccco4)n3CC2(C)C(=O)NC2CCCCC2C)cc1 (stereo unspecified),-2.56%,0%,3.81%,-0.007%,-2.56%
CC(C)c1cc(C2CCN(Cc3cn[nH]c3-c3ccccc3)CC2)[nH]n1,-4.14%,-2.71%,-23.8%,-13.1%,-2.19%
CCN(c1cc(C#CCN2CCOCC2)cc(C(=O)NCc2c(C)cc(C)[nH]c2=O)c1C)C1CCC(N(C)CCOC)CC1 (stereo unspecified),3.77%,5.26%,5.87%,-5.61%,6.23%
CC(C)C1c2cccn2CCN1C(=O)Nc1ccccc1Br (stereo unspecified),8.31%,1.26%,-0.65%,1.5%,5.26%
O=c1cc(-c2cnccn2)oc2c(Nc3cccc(OC(F)(F)F)c3)nccc12,-5.24%,-4.29%,-1.62%,-12.3%,4.19%
CNCc1cn(C2CCN(Cc3c(OC)ccc(F)c3F)CC2)nn1,-3.35%,0.501%,-5.16%,-6.68%,-5.65%
O=C(Cn1ccc2cc(S(=O)(=O)N3CCCCC3)ccc21)NCc1ccccn1,7.49%,1.95%,7.13%,6.72%,5.02%
c1ccc(Nc2nc3c(s2)CCCc2[nH]ncc2-3)nc1,-22.2%,2.67%,-2.07%,-14.6%,-37.2%
COc1cncc(NC(=O)C2=NO[C@@H]3CN(Cc4ccccc4)C[C@H]23)c1,-7.27%,-1.28%,0.135%,-3.77%,5.35%
CN1C(=O)c2cc(C(=O)NC3CCCC3)nn2CC1(C)C(=O)NCc1ccc(F)cc1 (stereo unspecified),5.36%,0.542%,5.62%,7.19%,2.63%
CCc1cc(C(N)=O)ccc1-n1nc(C(C)C)c2c(-n3cnc(-c4cnn(C)c4)c3)ccnc21,-0.314%,4.73%,3.27%,-19.2%,-2.57%
CCCC1c2ccc(C)n2CCN1C(=O)Nc1ccccc1C(F)(F)F (stereo unspecified),-7.56%,2.34%,-13.2%,1.91%,-4.37%
CCCn1c(=O)c2cc(F)ccc2n2c(SCC(=O)Nc3ccc(OC)c(OC)c3)nnc12,9.93%,1.16%,11.7%,1.08%,9.58%
CC[C@@H]([C@H](C)O)n1ncn(-c2ccc(N3CCN(c4ccc(OC[C@@H]5CO[C@@](Cn6cncn6)(c6ccc(F)cc6F)C5)cc4)CC3)cc2)c1=O,,-3.21%,,-25.4%,-0.242%
CCCn1c(=O)c2ccc(C(=O)NC3CCCCC3)cc2n2c(=O)n(CC(N)=O)nc12,5.43%,2.49%,7.87%,6.82%,4.75%
CC1(C)CC[C@]2(C(=O)O[C@@H]3O[C@H](CO[C@@H]4O[C@H](CO)[C@@H](O)[C@H](O)[C@H]4O[C@@H]4O[C@H](CO)[C@@H](O)[C@H](O)[C@H]4O)[C@@H](O)[C@H](O[C@@H]4O[C@H](CO)[C@@H](O)[C@H](O)[C@H]4O)[C@H]3O)CC[C@]3(C)C(=CCC4[C@@]5(C)CC[C@@H](O)[C@@](C)(C(=O)O[C@@H]6O[C@H](CO)[C@@H](O)[C@H](O)[C@H]6O)C5CC[C@]43C)[C@@H]2C1 (stereo partly specified),3.79%,1.4%,9.51%,-11.9%,1.29%
CC(C)CCNC(=O)C1c2c(n(C)c3ccccc23)SCC(=O)N1c1cc(F)ccc1F (stereo unspecified),2.8%,-1.24%,-1.64%,-4.18%,-1.24%
Cc1cccc(C(=O)N2CCC(c3nc(-c4cccn4C)no3)C2)c1 (stereo unspecified),-2.8%,-0.905%,-0.71%,-10.3%,-3.79%
CC(C)Cn1c(=O)c2ccccc2n2c(CCC(=O)NCc3ccc(F)cc3)nnc12,2.03%,-4.65%,0.456%,3.65%,-8.41%
CC(=O)OC[C@@]12[C@H](O)C[C@@H](C)[C@]3(C[C@@H](c4ccoc4)OC3=O)[C@H]1C[C@H](O)C[C@]21CO1,0%,0.583%,1.94%,-10.5%,3.55%
Nc1ncnc2c1ncn2[C@H]1CCCO1,-7.83%,6.79%,-1.75%,-13.3%,0.206%
CCOc1ccc(CN2C(=O)c3cc4sccc4n3CC2(C)C(=O)NC2CCCCCC2)cc1 (stereo unspecified),5.65%,0.308%,8.85%,8.53%,4.2%
CC(=O)Nc1c2n(c3ccc(F)cc13)CC(C)(C(=O)NC1CCCC1)N(CC1CCCO1)C2=O (stereo unspecified),-2.09%,3.79%,-0.673%,2.3%,-3.44%
O=C(O)CCC(=O)N1Cc2[nH]cnc2C[C@H]1c1nc(-c2ccc(OC(F)(F)F)cc2)no1,-7.7%,-6.45%,-1.39%,-13.3%,4.16%
O=C(O)c1ccc(C2CCCN(C(=O)c3cccc(N4CCOCC4)c3)C2)cc1 (stereo unspecified),-5.14%,-9.76%,-3.25%,-15.4%,6.6%
COCCNC(=O)c1ccc2oc(-c3ccncc3Cl)nc2c1,-14.4%,-14.8%,-12.4%,-19.4%,-13%
